Data on 46 compounds can be found in PubChem BioAssay AID1688 (National Center for Advancing Translational Sciences (NCATS), 2009).

In all, about 220,000 compounds went through this assay and about 2,400 (1.1%) were called active. Not shown: some 7% with an inconclusive outcome. The call rests on the fitted dose curve; in most records, active means well fitted inhibition curve with a large enough effect; inconclusive means small, poorly fitted or top-dose-only effect, or effect the other way; inactive means no such curve, though single readings can be large or run the other way. The list shows a part of the results, in another mix than the full data. Some compounds were tested as several samples or in several runs, with calls that do not always agree.
On the % scale 0 is the no-effect control and ±100 the full control effect; potency means the concentration at half of the fitted maximal effect.

This assay can be described thus: qHTS Multiplex Assay to Identify Dual Action Probes in a Cell Model of Huntington: Aggregate Formation (GFP). Further: nearly all actives have a fitted effect of over 60% in size. Particulars: PC12 HttQ103-GFP aggregates, Acumen cytometry, 40 h; series mostly up to 46.1 µM; activity change, negative = inhibition: at the top concentration. The method in brief: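 Using laser scanning cytometry, GFP-positive aggregates were counted after lysis of PC12 cells induced with 100 nM tebufenozide to express HTT exon 1 Q103–GFP. Compounds were tested in titration.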
In general terms: In qHTS, concentration-response curves come from the screen itself.
Regarding `N#C/C(=C/C=C/c1ccccc1)C(=O)Nc1ccccc1`, the “activity change, negative = inhibition” value was inactive: -24.7%. With `CCOCCCNc1ncnc2c1[nH]c1ccccc12`, the Potency is active: 10 µM.

As to `COC(=O)/C=C/S(=O)(=O)c1ccc(NC(C)=O)cc1`, the Potency was active: 10 µM. Same read-out and setting: with `Nc1ncnc2c1ncn2[C@@H]1O[C@H](CO)[C@@H](O)[C@H]1O` the entry was “inactive”.

Regarding `O=C(NCc1nc2ccccc2[nH]1)C1=C[C@@H](C2CC2)C[C@@H](OCc2ccc(CO)cc2)O1`, the activity change, negative = inhibition was inactive: 3.86% [at 9.22 µM]. With `CNCCCC12CCC(c3ccccc31)c1ccccc12`, the Potency entry was “inactive”.

Turning to `CC(=O)C1=C(C)N(Cc2ccccc2)C(=O)N[C@@H]1c1cccc(C(F)(F)F)c1`, the “activity change, negative = inhibition” value is inactive: -0.763%. With `O=C(Cc1ccc(Cl)cc1)Nc1ccc(N2CCN(C(=O)c3ccco3)CC2)c(Cl)c1`, the Potency was active: 10 µM. Regarding `CC(Cc1ccccc1)N/C=C1\CC(=O)NC1=O` (stereo unspecified), the “activity change, negative = inhibition” value is inactive: 20.9%. Still for that read-out and setting: with `CC1=CC(C)=Nc2ccc(C)cc2N1` the figure was inactive: 0.918%; with `CCCN1C(=O)S/C(=C/c2ccc(N3CCOCC3)o2)C1=O`, inactive: 6.69% [at 9.22 µM]; with `Nc1cc(-c2ccccc2)ccc1O`, inactive: 2.99% [at 9.22 µM].

As to `CN1CCN(c2ccccc2NC(=O)Cc2cn(C)c3ccccc23)CC1`, the Potency was active: 25.1 µM. On the same count and under the same terms, the value for `O=S(=O)(NC1CC1)c1ccc(S(=O)(=O)N2CCCC(c3nc(-c4cccnc4)no3)C2)cc1` (stereo unspecified) was active: 11.2 µM.

For the compound `C[C@@H](C(=O)NCCc1c[nH]c2ccccc12)[C@@H]1C[C@@]1(C)[C@@H](NC(=O)OCc1ccccc1)c1ccccc1`, the “activity change, negative = inhibition” value was inactive: 8.73%. For the compound `CCN(CC)C(=S)SSC(=S)N(CC)CC`, the “activity change, negative = inhibition” value is inactive: 1.81%. Turning to `Cc1ccc(NC2=CC(=O)C(=O)c3ccccc32)cc1`, the Potency is active: 10 µM.

In the case of `COC(C/C=C/[C@@H](O)COCc1ccccc1)OC`, the activity change, negative = inhibition is inactive: -4.79% [at 9.22 µM].

Regarding `N[C@@H](Cc1c[nH]c2ccccc12)C(=O)O`, the activity change, negative = inhibition was inactive: -5.43% [at 9.22 µM]. Take `Cn1ncc2c(NCc3ccccc3)ncnc21`: the “activity change, negative = inhibition” value was inactive: -12.4%. Same read-out and setting: with `CC(=C\C(=O)O)/C(=C/c1ccccc1)C(=O)O` the figure was inactive: -0.596%.

On to `Nc1c2ccccc2nc2ccccc12`, for which the activity change, negative = inhibition was inactive: 6.95% [at 9.22 µM]. In the case of `CC(C)c1ccc(-n2c(-c3ccccc3)c[n+]3c2CCc2ccccc2-3)cc1`, the Potency is active: 1.58 µM. For the compound `COc1cccc(Nc2nc(NCC3CCCO3)c3ccccc3n2)c1` (stereo unspecified), the Potency is active: 10 µM. Consider `COC(C[C@@H]1O[C@@H]1[C@@H](O)[C@H](C)OCc1ccccc1)OC`, for which the activity change, negative = inhibition was inactive: 31.1% [at 9.22 µM]. Consider `COc1ccc2c(c1)c1ccccc1n2C`, for which the Potency was active: 12.6 µM. In the case of `O=C(Nc1ccc(Oc2ccccc2)cc1)C1CCN(c2c3c(nc4ncnn24)CCC3)CC1`, the Potency is active: 8.91 µM. Turning to `O=C(CCN1C(=O)COc2ccccc21)NCCCN1CCN(c2ccccc2F)CC1`, the Potency is active: 3.16 µM.

Take `CN1/C(=C/C(=O)c2cccs2)Sc2ccccc21`: the “activity change, negative = inhibition” value is inactive: -5.66%. For `Cn1c(NC(=O)/C=C\c2ccccc2)cc(=O)n(C)c1=O`, the “activity change, negative = inhibition” value was inactive: 0.909%. On the same count and under the same terms, the value for `C=C(CC)C(=O)c1ccc(OCC(=O)O)c(Cl)c1Cl` was inactive: 43.7%. Take `O=C(COc1ccc(Br)cc1CNCCc1ccccc1)NCc1ccccc1`: the Potency is active: 12.6 µM. As for `COC(C/C=C\[C@@H](O)COCc1ccccc1)OC`, the activity change, negative = inhibition was inactive: 16.2% [at 9.22 µM]. Still for that read-out and setting: the value for `CN1C2CCC1CC(OC(=O)c1c[nH]c3ccccc13)C2` (stereo unspecified) was inactive: -27.5%.

Regarding `Cn1c(=O)oc2cc(S(=O)(=O)Nc3ccc4c(c3)OCCO4)ccc21`, the Potency is active: 35.5 µM. For the compound `CC(=O)c1ccc(N/N=C(/C(N)=O)C2=NC(C)(C)Cc3ccccc32)cc1`, the Potency is active: 11.2 µM. In the case of `COC(C[C@@H]1O[C@@H]1[C@H](O)COCc1ccccc1)OC`, the activity change, negative = inhibition is inactive: 19.8% [at 9.22 µM].

`CN1CCC(=C2c3ccccc3C=Cc3ccccc32)CC1`: the “activity change, negative = inhibition” value was inactive: 8.24%. Consider `Cc1ccc2nc(-c3ccc(SCC(=O)Nc4nnc(C)s4)nc3)[nH]c2c1`, for which the Potency was active: 15.8 µM.

`COc1ccc(/C=C2/CCCC(C(=O)C(F)(F)F)=C2O)cc1OC`: the activity change, negative = inhibition was inactive: -15.4% [at 9.22 µM]. On the same count and under the same terms, the value for `CC(=O)n1cc([C@H]2C=C(C(=O)NCc3ccccc3)O[C@@H](OCCCCO)C2)c2ccccc21` was inactive: -9.5% [at 9.22 µM]; that for `CCC(=O)/C=C1\Sc2ccccc2N1CC` was inactive: -1.12%; that for `COC(C[C@@H]1O[C@@H]1[C@@H](O)COCc1ccccc1)OC` was inactive: -5.39% [at 9.22 µM]. As to `C=C(C)CC1N(c2cccc(OC)c2)C(=O)C2C(C(=O)O)C3C=CC21O3` (stereo unspecified), the “activity change, negative = inhibition” value is inactive: -12.8%. Take `O=C1N=C(N2CCOCC2)S/C1=C/c1ccc(-c2ccccc2Cl)o1`: the “activity change, negative = inhibition” value is inactive: -3.65%. Still for that read-out and setting: the value for `CCOC(=O)CN1C(=O)N[C@@H](c2ccc(Br)cc2)C(C(C)=O)=C1C` was inactive: -0.131%.
